# Source: the supplement of paper PMC3334620
# The full ranking holds about 33,000 sequences; the median of “E-score (-0.5 to 0.5)” is about -0.021, and the highest 2% start at about 0.32. The list shows a part of the results.
# Molecular target: T1, Zap1 (UniProt P47043)
# T1 sequence: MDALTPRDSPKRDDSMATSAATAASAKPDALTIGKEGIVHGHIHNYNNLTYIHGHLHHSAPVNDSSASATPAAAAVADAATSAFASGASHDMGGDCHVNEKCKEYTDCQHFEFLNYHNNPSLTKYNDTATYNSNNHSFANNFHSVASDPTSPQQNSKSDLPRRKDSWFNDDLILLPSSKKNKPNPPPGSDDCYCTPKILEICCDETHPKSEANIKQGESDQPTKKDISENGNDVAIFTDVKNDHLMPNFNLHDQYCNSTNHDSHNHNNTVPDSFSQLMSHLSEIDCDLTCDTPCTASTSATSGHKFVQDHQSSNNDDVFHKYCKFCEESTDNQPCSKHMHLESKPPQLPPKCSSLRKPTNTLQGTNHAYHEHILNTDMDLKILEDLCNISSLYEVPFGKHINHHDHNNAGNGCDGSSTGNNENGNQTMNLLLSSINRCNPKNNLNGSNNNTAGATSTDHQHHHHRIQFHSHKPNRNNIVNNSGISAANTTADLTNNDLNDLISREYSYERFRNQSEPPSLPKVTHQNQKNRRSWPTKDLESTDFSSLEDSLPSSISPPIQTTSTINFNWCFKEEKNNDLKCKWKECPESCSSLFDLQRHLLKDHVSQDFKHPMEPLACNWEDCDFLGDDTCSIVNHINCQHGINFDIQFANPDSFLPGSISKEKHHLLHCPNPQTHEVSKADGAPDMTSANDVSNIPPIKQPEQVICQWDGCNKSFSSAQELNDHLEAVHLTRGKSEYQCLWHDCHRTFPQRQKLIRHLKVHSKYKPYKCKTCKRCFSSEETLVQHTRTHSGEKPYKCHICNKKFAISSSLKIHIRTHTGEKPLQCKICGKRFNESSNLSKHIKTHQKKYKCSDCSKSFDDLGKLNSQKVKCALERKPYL
# Assay: PBM E-score (8-mer binding enrichment) (E-score (-0.5 to 0.5)); higher = stronger / more preferred TF binding; most listed sequences are background and not binding sites
# Conditions: protein concentration: 200 nM; construct: GST-full length
# Method: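 Universal 'all 10-mer' protein binding microarrays (Agilent AMADID 015681) probed with GST-tagged S. cerevisiae TFs (full-length or DBD) made by in vitro transcription/translation (PURExpress), about 100-200 nM. Bound TF was detected with fluorescent anti-GST. Each ungapped 8-mer (which stands for itself and its reverse complement) is scored by the PBM enrichment score (E-score), a modified Wilcoxon-Mann-Whitney statistic from -0.5 to +0.5, computed with the Universal PBM Analysis Suite. Scale: above 0.35 generally sequence-specific binding.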
row,Sequence,PBM E-score
1,AAACTACG,-0.0194
2,AACGTATA,-0.0404
3,CGCATGAG,-0.104
4,ATTACAAT,-0.012
5,ATTCGTCG,0.0403
6,CTATGGGA,-0.0388
7,AAGTGCCC,-0.189
8,ACCTTTCA,0.257
9,GACGATCC,-0.105
10,ACGCGGCG,0.0082
11,GTCCTAGA,-0.0988
12,AAACCATG,0.211
13,TGACGTCA,0.13
14,GAACTACC,0.162
15,AGAACAGC,-0.147
16,ATCATAGC,-0.0819
17,GAACACGC,-0.0693
18,CTGCTGAC,0.0872
19,CTAATCTA,-0.13
20,GTCAGATA,-0.00942
21,ACGCTCAC,-0.0884
22,CTGATTGC,-0.0621
23,GATACAGC,-0.107
24,TCTTAAGA,0.00469
25,ATATCTAA,0.0975

row,Sequence,PBM E-score
1,AAATCGGG,0.14
2,CTCGGAGA,-0.152
3,CTCCAATC,-0.18
4,GCCCAACC,-0.0373
5,CAGACACG,-0.165
6,ATATTGTC,0.0751
7,AAGAGCCT,-0.219
8,ATGCTAAG,0.0592
9,AACGTGTG,-0.143
10,ACGCACTC,-0.149
11,AAACTTGA,-0.124
12,AGTAGCAT,-0.201
13,AAGACTCA,-0.249
14,AGTTGCAA,0.00202
15,GCCCCCCA,-0.337
16,ACTTTTCT,0.114
17,ATGCTGCA,-0.0887
18,CACACAAC,-0.00717
19,ACTGCCGA,-0.119
20,GCTACAGC,0.0329
21,GATTGGCC,-0.132
22,AAACAGTT,-0.0683
23,TGTAAGAA,0.11
24,CAATCACG,-0.157
25,TAACTAGA,0.227

row,Sequence,PBM E-score
1,AATAATGG,0.155
2,GGTAGATA,0.131
3,CGGTTATC,0.424
4,ATAAACAG,0.103
5,ACTGAATA,-0.0283
6,AACCCGCT,0.161
7,AACGACTA,-0.018
8,AGAGACCA,0.121
9,CTTAGGTA,0.136
10,TCCGGCAA,-0.116
11,CGAGGTAA,0.285
12,GGCGTAAC,0.0681
13,AAATACTT,-0.154
14,ATGATACA,0.228
15,ACATACGC,-0.0732
16,GTATTCAC,0.12
17,TCTCGTAA,0.0724
18,CCCAGTCG,-0.279
19,AAACGTAC,-0.139
20,ATGCTACG,-0.141
21,AATTTCTG,0.00193
22,AAATTTAA,0.272
23,GAGCATAA,0.144
24,GTTCTGCA,0.0111
25,ATACGTAG,-0.107

row,Sequence,PBM E-score
1,CCGTGCTA,-0.168
2,ACTCAGCC,-0.208
3,CCATAGGC,-0.0525
4,ACGAGCTG,0.00917
5,CTTCTGAC,-0.1
6,CAAGCGCA,-0.0103
7,ACATGAAC,-0.0893
8,ATCACAGG,-0.0511
9,TGCTCCAA,-0.151
10,CCACCAAC,-0.0504
11,TAAAGACA,-0.0439
12,CGCCTCTC,-0.305
13,GAATGCTC,-0.374
14,CAGGCTGA,-0.175
15,CTCATAAC,0.181
16,ATGACAAT,0.113
17,ACCGGCGT,0.0116
18,TCGCTACA,-0.37
19,ATGAATGC,-0.155
20,ACTGCACT,-0.149
21,CGCAAAAC,0.0401
22,CATGACCG,0.177
23,CTTGAGAC,-0.0474
24,CACGAATG,0.137
25,ATAGGTAA,0.323

row,Sequence,PBM E-score
1,ACGCCTTC,-0.12
2,AGACCTCT,0.0443
3,AGACAGCT,-0.0493
4,AGTTAATA,0.165
5,GCACCCGC,-0.0934
6,CTCACCGC,-0.0442
7,AGGGTGAT,0.427
8,CGAATCGC,-0.11
9,ATCCTGCG,-0.119
10,TCCTTCCA,-0.195
11,CATTATTC,-0.0242
12,GGGAAGAA,-0.148
13,ACACAAGG,0.132
14,ATAGGTCG,0.021
15,ATGCCCAT,-0.208
16,ACTGCACA,-0.0828
17,CATCGTCG,-0.171
18,CGAAGACC,0.206
19,ATCCCCGG,-0.154
20,CTCTTAAG,0.134
21,AGTCGCCA,-0.224
22,CTTTGAGC,-0.0975
23,ATCGGACG,-0.161
24,GGTGAAGA,-0.0245
25,ACTAGCGG,0.0443

row,Sequence,PBM E-score
1,CAAGGAAA,-0.0145
2,TAGAGTCA,-0.166
3,GTTTTCCA,0.103
4,ATGCTCCC,-0.4
5,CGCGACTA,0.0593
6,TATGTTAA,0.0706
7,GGCCCTGA,-0.137
8,AATGTCAT,-0.0489
9,AAAAGACT,-0.12
10,GACGAGAC,-0.182
11,CGCTCTAA,-0.0756
12,ATACAGCA,-0.0997
13,TACTTGGA,0.113
14,GTGACGGA,-0.142
15,CAGCCGGG,-0.0325
16,CGCAGGAC,-0.0895
17,CATATATG,0.00011
18,TAGGGCCA,0.0256
19,AAAAGTTG,0.0566
20,TAGGCTGA,-0.249
21,CGCCAATC,-0.11
22,CAAACTCA,0.00911
23,ACCGTCAG,0.162
24,CCCACTCG,-0.233
25,ACCTTTCC,0.107

row,Sequence,PBM E-score
1,ATTAGTTC,0.00076
2,CGAGGGGC,0.0476
3,TACGGTGA,0.0364
4,AAGGACTA,-0.117
5,CTCTGCCC,-0.243
6,GCCAGGGC,-0.128
7,AGCGGGCC,-0.289
8,CGCCCTCC,-0.215
9,AAGGTTGA,0.149
10,CCGAACAA,0.139
11,CGTTCACA,-0.0567
12,CTCAGCAG,-0.129
13,CACCAGGA,0.0532
14,AATCTAGT,0.0759
15,AGGGGGAA,-0.234
16,ACTTCTTC,-0.0766
17,AACTACAG,0.155
18,GAGCAAGC,-0.17
19,TCAGAAAA,-0.0729
20,CCTGCTGA,0.0658
21,CCCCTCTA,-0.102
22,AAGGTCAC,0.417
